Laboratory results from the supplement of paper PMC4466236.
Over roughly 33,000 sequences, “E-score (dimensionless, -0.5 to 0.5)” has its median near -0.058; the highest 2% begin near 0.35. The list shows a part of the results.

The sequences below were run on MvaT (assay: PBM 8-mer E-score (mean of HK and ME arrays) (E-score (dimensionless, -0.5 to 0.5)); higher = stronger relative binding preference; most listed sequences are background and not binding sites).
Outline: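 Full-length P. aeruginosa MvaT carrying an N-terminal glutathione S-transferase tag was tested by protein binding microarray following a previously described protocol. Two universal double-stranded 60-mer arrays, ME and HK, were used, each with a constant 25-mer primer region and a variable 35-mer region covering all 8-mers. The rank-based E-score is the mean of the two arrays, parsed with a custom script. Its range runs from -0.5 to 0.5 for each 8-mer.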

Row | Sequence | PBM 8-mer E-score
1 | CCACCTCG | -0.129
2 | ACTGCCTA | -0.0804
3 | AAAAGTAA | 0.28
4 | CTCGTATA | 0.149
5 | TGTATGAA | 0.183
6 | AACTTCAT | 0.239
7 | GGGATTCA | -0.0883
8 | CCTGTTCG | -0.151
9 | GTAAACGA | -0.0533
10 | AACCGGCC | -0.111
11 | GTGACTGA | -0.146
12 | GCGAGAAA | 0.0152
13 | TAACGTCA | 0.0862
14 | CTGGGGCA | -0.263
15 | AGAACCCC | -0.237
16 | AGAGAAAC | -0.0279
17 | CCAATGCA | -0.119
18 | AAGGCGCA | -0.191
19 | CCCTTCTA | -0.152
20 | ACTGGCGC | -0.104
21 | ACTCTGAT | 0.0137
22 | GGCACAGA | -0.147
23 | AGCCGCCT | -0.243
24 | CGCGGACG | -0.123
25 | CAGCCTAG | -0.219

Row | Sequence | PBM 8-mer E-score
26 | AAGCAAAT | 0.0693
27 | AGGACCAG | -0.184
28 | ATCACGAG | -0.0754
29 | AGCGTAAG | -0.172
30 | ACGCTTTG | -0.117
31 | GCTATCCC | -0.0801
32 | CTGGTAAA | 0.0988
33 | ATTGAACG | 0.1
34 | ATCGTTGC | -0.0117
35 | CCAGTAAG | -0.0309
36 | GCGCAGCA | -0.211
37 | GCTCCTAC | -0.185
38 | ATGACTAC | 0.0478
39 | CTAAGCGA | -0.143
40 | ACTGCGAA | -0.0565
41 | AGGGTAGA | -0.173
42 | GGTACGGA | -0.173
43 | CATGTCGC | -0.129
44 | AGCTAGGC | -0.32
45 | ACGTCCCA | -0.171
46 | GGACGGAA | -0.0579
47 | AGCCCCCG | -0.367
48 | ACAAGATA | 0.283
49 | CGCCAACG | -0.157
50 | GCAGCGAC | -0.227

Row | Sequence | PBM 8-mer E-score
51 | GGTTGCCA | -0.106
52 | AGAACGCG | -0.124
53 | CCAGGAAA | 0.0846
54 | CGCGCGAA | 0.0286
55 | CCTTCCTA | -0.268
56 | ACCATCTG | 0.00967
57 | AGTTAAAG | 0.209
58 | CCACTGTC | -0.0539
59 | CCGCCTTC | -0.246
60 | GCGTTTAA | 0.17
61 | AAGTGCGA | 0.0158
62 | CCCGAAGG | -0.384
63 | CGCTTCTA | -0.166
64 | TGCTAGCA | -0.138
65 | GCACACTA | 0.0972
66 | ATGATGAC | 0.0741
67 | AATCAAAG | 0.0531
68 | ACCGTGGC | -0.137
69 | AGTCTATA | 0.203
70 | AATTAAAG | 0.355
71 | AACACATG | 0.076
72 | CTCAGCAA | -0.0212
73 | CAGGGCTA | -0.129
74 | AACGAAGT | 0.0151
75 | GACGGCGA | -0.0875

Row | Sequence | PBM 8-mer E-score
76 | ACATTCCG | 0.213
77 | AAGCGAAA | 0.106
78 | AGATACCT | -0.0522
79 | CTAGAAAG | 0.0386
80 | GCGGTGTA | 0.0059
81 | AAAGACGG | -0.0214
82 | AACGTGTA | -0.173
83 | GGGCAATA | 0.0333
84 | ATATCAGC | 0.135
85 | CGACTTTA | 0.163
86 | TGAATGAA | 0.124
87 | CAGTGCGG | -0.084
88 | CTTTCTAC | 0.0152
89 | CGGGCAGA | -0.201
90 | CACTCAAA | 0.115
91 | GAACAACA | 0.108
92 | AGAAGACG | -0.0834
93 | ATTACATA | 0.226
94 | AGATTACT | 0.199
95 | CTAAACTC | 0.123
96 | TCATTACA | 0.178
97 | CCGCTTGC | -0.27
98 | CGCCTTCA | -0.288
99 | AACTGGAA | 0.113
100 | AGTGTGTG | 0.137

Row | Sequence | PBM 8-mer E-score
101 | GAGGAACC | -0.187
102 | CATCAATC | -0.217
103 | CTTGTGAC | 0.0235
104 | CCATACCA | -0.145
105 | ATGGACCG | -0.19
106 | CATGGTTC | -0.116
107 | ATTGAGGC | -0.0701
108 | AATATGGA | 0.172
109 | ATACAGCC | -0.0313
110 | CACCCCGC | -0.251
111 | ACGCACCT | -0.13
112 | GGTCTTAC | -0.186
113 | ACTTGGCC | -0.0697
114 | AGCTCAGA | -0.163
115 | CAGGTTCC | -0.237
116 | ACTACCCA | -0.0208
117 | CCTGCGGC | -0.139
118 | AAACCACC | -0.0352
119 | AGAAGATC | 0.0577
120 | CCCCGGGA | -0.277
121 | CCAGTGCA | -0.0854
122 | CCGAGCTC | -0.257
123 | AGCAACAT | 0.0701
124 | GGACTAAC | 0.024
125 | CAGTCGAG | -0.263

Row | Sequence | PBM 8-mer E-score
126 | ACATAAAT | 0.301
127 | AGGTCATA | -0.0479
128 | GCCCCACC | -0.292
129 | AGTGGCCC | -0.293
130 | CAATCCGA | 0.0113
131 | AGCCTAAC | -0.0194
132 | AAAGAATG | 0.165
133 | GACCTGGA | -0.222
134 | AACCTCCT | -0.257
135 | CCGTGCTC | -0.173
136 | CCTCTGAA | -0.216
137 | GGTATGAC | -0.144
138 | ATATGTTC | 0.231
139 | CCTCGTCC | -0.302
140 | TTACAAAA | 0.165
141 | ATAATCAC | 0.247
142 | AAGCCGAT | -0.0766
143 | GGCCCAGA | -0.188
144 | GCGTAGAC | -0.299
145 | CTGTTACC | -0.0445
146 | TATTCCAA | 0.284
147 | TCGACCAA | 0.00565
148 | GTGGCGTA | 0.0544
149 | CATTCTTA | 0.143
150 | AGGAACTG | -0.184

Row | Sequence | PBM 8-mer E-score
151 | ACCGCCAA | -0.0886
152 | ACCGGCGC | -0.223
153 | ATGTTGTG | 0.205
154 | GACGAGCA | -0.105
155 | ACGACAGA | -0.0131
156 | GTGGAATA | 0.178
157 | ACTCCGCG | -0.222
158 | CATGCTGG | -0.146
159 | CTCTGATC | -0.13
160 | ATCCAAGA | -0.0611
161 | CGCCAAAA | 0.0577
162 | ACTTCGAC | -0.0298
163 | TGAGATAA | -0.0041
164 | ACCGGGAG | -0.168
165 | ATGTCTCC | -0.0135
166 | TAACACTA | 0.248
167 | ACCAAAAC | 0.0892
168 | GAATATCA | 0.209
169 | CGTGAAGA | -0.181
170 | CTGGACGC | -0.223
171 | GGACCGGA | -0.0076
172 | AGGACCGG | -0.227
